# Paper PMC12136788
# The list shows a part of the results.
# B1: chr3:95657547:95657548:-_ENSMUSG00000015748_ENSMUST00000015892|mus_hu|FALSE|FALSE (ssRNA)
# RNA: GGGAGUUCUACAGUCCGACGAUCCUUUGACAGUGCCAUUUUUCAGGAAAAAGAGAACAAUAGCUCAAACAGGACUCAAUACUACACCUCACAAACUUCAGCCCCUGAGACGGAGCCCGAACGUUACACCGGAACCGGAAACCUCAACAGAGGAUUGAGCAUCA
# B2: chr7:141450121:141450122:+_ENSG00000106028_ENST00000265304|hu_mus|hu_hu_hu_mus_True|8_108 (ssRNA)
# RNA: GGGAGUUCUACAGUCCGACGAUCUCAUCCUUUCUACGCCUUUUCUUUUGUCUGGUCACUCAGAAAUAUAAUGUUAUCAGCUAUGAUUGUUGUUGCUUGCCGCCUCACAUUGUUUUUAUCCAUGUACUCACCAUAGUCCACUUUCAACAGAGGAUUGAGCAUCA
# B3: chr3:133126781:133126782:-_ENSMUSG00000040943_ENSMUST00000098603|mus_mus|FALSE|FALSE (ssRNA)
# RNA: GGGAGUUCUACAGUCCGACGAUCCAGUAUUUAUAACCACCCUCAGAUUGUAUAAACAAAGCCAAAAUCUCAGGAAGUAAGCUACAUUAAAAAAUAAAGCAUAGAAAAAUGCACACAGAAGUUCAUUAUCUUAGUGUCAAACUGCAACAGAGGAUUGAGCAUCA
# B4: chr16:94915998:94915999:+_ENSMUSG00000022897_ENSMUST00000023614|mus_mus|motif|central (ssRNA)
# RNA: GGGAGUUCUACAGUCCGACGAUCCGCCCUCCUGACAGUGCUGUGCUCAAGGUGAGGCCUCUGUACGGAAAUGCUCAUCAACGGCCAAGCUCAAAACAAUCCACAGGCUUGACAUUUAAUUACAAAAUCAAUAUGGGUUUCCUGCAACAGAGGAUUGAGCAUCA
# B5: 14520466_14521307_194_5pUTR_ENSG00000129083_ENST00000439561|human|control|control (ssRNA)
# RNA: GGGAGUUCUACAGUCCGACGAUCGCCGUCAUGGUUUCUGGUUAUAUUAUAACCAAUCCUUGACACAAGAUUUAAGGAUGCCAGAAAAUCACGCCUCUGGGACUGGGGGCUUGUGGCCCACUACCAGGCUCCGAGGGGCAGUGGCAACAGAGGAUUGAGCAUCA
# B6: chr9:91931296:91931297:+_ENSG00000123975_ENST00000314355|hu_hu|hu_hu_hu_mus_True|78_78 (ssRNA)
# RNA: GGGAGUUCUACAGUCCGACGAUCAGAUUAGAUGAUCCCAGCUGCACUUCAUUUUUGUUGAUCUUUUGGAAGAGGUCGUCUAAAGAGAAGAAUAUGCGGUUCUGGCUCAUGAAUCAUGUAAUGAACCCAUCCUAGACUCUGUUGCAACAGAGGAUUGAGCAUCA
# B7: chr11:77336104:77336105:-_ENSG00000074201_ENST00000525064|hu_mus|hu_hu_hu_mus_False|58_88 (ssRNA)
# RNA: GGGAGUUCUACAGUCCGACGAUCCUCACACAUUGCUGUGAACAUCGCCUCCAACGCUGACUUAUCACUGGGCACAAAUCUAAAUUCAGAAAUGGGUUCAACAUCAUCAUUGUCUUCCUCAUCUUCAUCAGAGAGAGGUUCUUUCAACAGAGGAUUGAGCAUCA
# B8: chr2:47387770:47387771:-_ENSG00000143933_ENST00000272298|hu_mus|motif|central (ssRNA)
# RNA: GGGAGUUCUACAGUCCGACGAUCAAGGUUUAAGGACAAUGACAGUAAGAUAAGGGAAGAAAACAUGGAGGAAUGAAGUCCGGAUUACUAUACAUGCAUAUUUUUUGACAGUAGGGGGGGGGAACCUUUUACAGAUAAGUUACACAACAGAGGAUUGAGCAUCA
# B9: 28393762_28401369_261_CDS_ENSMUSG00000004056_ENSMUST00000051356|mouse|control|control (ssRNA)
# RNA: GGGAGUUCUACAGUCCGACGAUCCAGGGGGGGUAAGGUCUGGUCAGGGGCCUCGGGCCUCUCCUUAUACCCAAUGAAAGAUCCAUCACUCUUCAGAAGGAAGUACCGUGGCCUCCAGGUCUUGAUGUAUUCACCACGUUUGUGCAACAGAGGAUUGAGCAUCA
# B10: chr1:153198750:153198751:+_ENSMUSG00000023150_ENSMUST00000023918|perfect_dup|motif|central (ssRNA)
# RNA: GGGAGUUCUACAGUCCGACGAUCUUCUGGAUUGAGAUCAUCAAAUUUAACGUGAGAAAUUCCAUGAGGAUCACUAUCACGGUUAAAGAUUUCAAAUAAAUAGGGACUGCAGCAAGCUAGCACUGCUCUGUGUGCUAACAUUUCCAACAGAGGAUUGAGCAUCA
# B11: 152111877_152112083_2306_3pUTR_ENSMUSG00000039068_ENSMUST00000106100|mouse|control|control (ssRNA)
# RNA: GGGAGUUCUACAGUCCGACGAUCGUUAUGGGAGCCUUCUGGACCAUCACUCAAAGGCAACAUGGAGUACGAAAGGGAUUCUCCAUCCUUCUUAGGAUCUAAAGGACUUUUUGGUCUAGCGGGCAACCCUACUUUAUCAAAAACCAACAGAGGAUUGAGCAUCA
# B12: chr10:61154552:61154553:+_ENSMUSG00000020088_ENSMUST00000020285|mus_mus|motif|central (ssRNA)
# RNA: GGGAGUUCUACAGUCCGACGAUCCAGAGCCCAAUGCGCUAUCUGUUCAUAAUUUUAUGAAGUAUGUAAAUUUCAUUUACGGGUUAAAAAAAAAGAAUAGAAAAUCUGGACCAAGUAAAUUGUGAACUGAAAAAGUUAGAGAAGCAACAGAGGAUUGAGCAUCA
# B13: chr3:57561382:57561383:-_ENSG00000168374_ENST00000303436|hu_mus|FALSE|FALSE (ssRNA)
# RNA: GGGAGUUCUACAGUCCGACGAUCGAGCAGCACUGCAUCCUGCAGCUCAUCUUCCAGAAGCAUUUUCUGCAGCACAGCUGCUCCUUCCUGGAUUCUUUCACGAUCAUUGCUAUCUACCACAAAAAUGAGACCCUGGGUAUUCUGCAACAGAGGAUUGAGCAUCA
# B14: 173383957_173384077_3410_3pUTR_ENSG00000113742_ENST00000334035|human|control|control (ssRNA)
# RNA: GGGAGUUCUACAGUCCGACGAUCGAGUUUAUAUAUAAACAUCAAAAAUAACAUUUAUACAUUUAUUCUUCAGGAGAGGAAAUGCUAGGUUUCCCACCAGUUGUCAUUAAUUCUAGCUUUGGUAGGUUUCCUGGGGCUUUGACCCAACAGAGGAUUGAGCAUCA
# B15: chr16:4561903:4561904:-_ENSG00000089486_ENST00000567695|hu_hu|motif|central (ssRNA)
# RNA: GGGAGUUCUACAGUCCGACGAUCAGGCAUGGCCUGAAAGGGGGUCUGCACACUGACUCAAAGGGACAAGUUCCUUCUUAGCGGCCAGGGUCUGAUCAUUCACCCAGGUACAGUGUCCUCUCUACCUGACACCAGGCAGCUCUCCAACAGAGGAUUGAGCAUCA
# B16: chr2:30258285:30258286:-_ENSMUSG00000026853_ENSMUST00000028207|mus_hu|FALSE|FALSE (ssRNA)
# RNA: GGGAGUUCUACAGUCCGACGAUCGGCCUCCAUGGGGUUAUAGCAGACACCGUAGCCGUCGGGGACCACGGGCCCGAAGAACAUGACACAGUCUGUCUUGGCAGGGACCUGGCUGGUGGAGAGGUGGAAGUGCAUGGCGAUGGCCAACAGAGGAUUGAGCAUCA
# B17: chr1:174052150:174052151:+_ENSMUSG00000026553_ENSMUST00000135192|mus_mus|FALSE|FALSE (ssRNA)
# RNA: GGGAGUUCUACAGUCCGACGAUCCCUUCUGUCUCGUACUGGAAUUGACAGGAAGGUGGUGGGAAGGGAGGAGUAUAUACUAAGAAUCUGAUAAACAAAUGGCCAGCACAUAGUUUUCAUUGUUCCUUGGAAGGCCUAAGCUGACAACAGAGGAUUGAGCAUCA
# B18: chr11:2981123:2981124:-_ENSG00000205531_ENST00000380542|hu_hu|FALSE|FALSE (ssRNA)
# RNA: GGGAGUUCUACAGUCCGACGAUCCUUGUAGGUUUUUGUCAGGACUGAGUUGGUAAAGUAGUCGUUGGGUUCAAAGUGGAACUCUAACACAAAAGACAUAGGCUGUCCAGGGUCAGAAAAUUUCACUUUAAUAUCCUGCAGGUGCAACAGAGGAUUGAGCAUCA
# B19: chr4:48853911:48853912:+_ENSG00000109180_ENST00000264312|hu_hu|motif|central (ssRNA)
# RNA: GGGAGUUCUACAGUCCGACGAUCAGCAGAUUCAUUCAUAGAAGAACUGAAUGGAAUUGGCUCAUAAUGAGGAAGCAUUUCGGUGUUGUCUGCUGCUGGGGAUGUCACAAAAGAUGAUUGACCACUCACACUUGAGUCAUAUUUCAACAGAGGAUUGAGCAUCA
# B20: chr11:100882373:100882374:+_ENSMUSG00000019302_ENSMUST00000044721|mus_mus|mus_mus_mus_hu_True|1_68 (ssRNA)
# RNA: GGGAGUUCUACAGUCCGACGAUCUUCCUGGUUUGUGUUGAUUUCCUUCAGUUCAUUUUCAAUCUUCUCGAAAUUGGCCUCUAAGUCAAUCAUGUCCCGGGGGAAGGGAACCUCUGGGUUUUCACCGGUGUCCAUAAUUGGGAUCAACAGAGGAUUGAGCAUCA
# B21: chr4:115894766:115894767:+_ENSMUSG00000028698_ENSMUST00000030464|mus_hu|mus_mus_mus_hu_True|38_98 (ssRNA)
# RNA: GGGAGUUCUACAGUCCGACGAUCUUCCACACGGAAAGUACUUGGGGGUUUUCCAACGGCCAGUACCAGUCCGGCCAAACUACCCGAACAGGGUCCUGUCCUCCUCUCCUACAGAACACAACAAAAUGCCCCCGAACUUUCAAGCAACAGAGGAUUGAGCAUCA
# B22: chr13:36245089:36245090:+_ENSG00000172915_ENST00000537702|perfect_dup|motif|central (ssRNA)
# RNA: GGGAGUUCUACAGUCCGACGAUCGUUCUUCCUUUAUCUUCAGUAUCUGUUCUGAUGCUCAUAAUGCCACCGAUUAAAAUCGGUAUUAAAAGCUACAAUGCUACCAGAAGCCAUGCCAGUGAUCAGAGUCCUCUGGUCAUGGGACAACAGAGGAUUGAGCAUCA
# Target: T1, UNK ZnF1-3 (human, UniProt Q9C0B0 31-174)
# T1 sequence: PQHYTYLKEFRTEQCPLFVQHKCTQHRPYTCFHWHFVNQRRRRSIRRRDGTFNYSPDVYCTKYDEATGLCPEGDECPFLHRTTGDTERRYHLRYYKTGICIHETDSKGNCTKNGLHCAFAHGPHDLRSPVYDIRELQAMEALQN
# Experiment: nsRBNS (natural sequence RNA bind-n-seq); RBNS binding buffer (assumed for nsRBNS): 25 mM Tris pH 7.5, 150 mM KCl, 3 mM MgCl2, 0.01% Triton X-100, 500 ug/ml BSA, 20 U/ml SUPERase-In, 4 C; UNK is unkempt and MSI1 is Musashi-1; names of the RNAs are library labels; protein concentration not given here; high values mean tight binding
row,Binder,binding signal [enrichment R]
1,B1,1.46
2,B2,0.423
3,B3,1.27
4,B4,1.82
5,B5,1.17
6,B6,1.07
7,B7,1.16
8,B8,1.96
9,B9,0.777
10,B10,1.74
11,B11,1.18
12,B12,2.05
13,B13,0.722
14,B14,0.914
15,B15,0.921
16,B16,1.21
17,B17,1.26
18,B18,1.06
19,B19,1.93
20,B20,0.507
21,B21,1.06
22,B22,1.05
